The text below walks through data of ChEMBL document CHEMBL4888484, “Replenishing the malaria drug discovery pipeline: Screening and hit evaluation of the MMV Hit Generation Library 1 (HGL1) against asexual blood stage Plasmodium falciparum ,using a nano luciferase reporter read-out” (2022).

What is called % Inhibition is the relative decrease from the control value, in per cent.

The whole screen tested about 150,000 compounds, of which about 540 (0.36%) showed an effect of 50% or more. Some of the results follow.

The assay relates to Plasmodium falciparum. Briefly: Primary screen in NF54 nanoGlo assay, in single point, at 2uM, 72h; a lower Z score goes with more inhibition. The format is functional, Erythrocyte. The conditions noted are these: timepoint 72 hour.
With `CC(C)[C@H](CO)N(Cc1ccccc1)C(=O)c1cnn2c1CCCC2`, the “% Inhibition” value was -1% and the Z score was 0.06.
On the same counts, the results for `CC[C@H](NC(=O)c1cnn(CC)c1)c1ccc(C)cn1` are -7% and 0.66.
On the same counts, the results for `O=C1CC[C@@H](C(=O)Nc2cccc(OCCn3cccn3)c2)N1` are -3% and 0.32.
As for `CC(C)n1ccc(-c2cncc(C(F)F)c2)n1`, the “% Inhibition” value is -12% and the Z score is listed as 1.61.
For `CCN1C[C@@H](c2ccccc2)CC2(CCN(S(=O)(=O)N(C)CC)CC2)C1`, in that order: -14% and 2.17.
For `CN1CCC(Cc2noc(-c3cn(C[C@H]4COc5ccccc5O4)nn3)n2)CC1`, in that order: -2% and 0.3.
As for `O=C(c1cccnc1)c1c(F)cc(F)cc1F`, the “% Inhibition” value was 3% and the Z score is -0.55.
For `Cc1nn(C)c(C)c1OCc1nnc(C(C)C)o1`, in that order: -6% and 0.73.
For `CC1(C)C[C@H](O)c2cccc(NCc3noc4c3CCCC4)c2O1`, in that order: 5% and -0.54.
On the same counts, the results for `Cc1nccn1CCCN(C)C(=O)[C@H](C)c1ccnn1C` are -1% and 0.14.
For the molecule `CC1(C)CN(CCn2cncn2)C1(C)C`, the “% Inhibition” value is given as -6% and the Z score is listed as 0.63.
On the same counts, the results for `CC1CCC(O)(CN2CC[C@H](N(C)Cc3nnc(C4CC4)o3)C2)CC1` (stereo partly drawn) are -11% and 1.55.
For `CC(NC(=O)C(C)N1CCC(C(N)=O)C1)c1cc2ccccc2o1` (stereo not drawn), in that order: -14% and 1.25.
On the same counts, the results for `CCOC(=O)N1CCN(C(=O)CCc2n[nH]c(-c3ccc(OCc4ccccc4)cc3)nc2=O)CC1` are -6% and 1.07.
Take `O=C(Cc1ccsc1)N[C@H]1CCOC[C@H]1C1CCOCC1`: the “% Inhibition” value is given as -5% and the Z score came to 0.94.
On the same counts, the results for `CN(CC1(O)CCC1)C(=O)CCc1cncs1` are -8% and 0.8.
On the same counts, the results for `COC(=O)CN1CCN(c2noc(C(C)(C)C)n2)CC1` are -11% and 1.35.
For the molecule `COc1ccc(CN[C@@H](C)c2ccc(S(C)(=O)=O)c(F)c2)cn1`, the “% Inhibition” value was -13% and the Z score was 1.29.
For the molecule `Cc1cc(NC(=O)C2CCN(c3ncnc4nc[nH]c34)CC2)nn1C`, the “% Inhibition” value came out at 1% and the Z score is on record as -0.18.
On the same counts, the results for `Cc1nc(C)c([C@H](C)NC(=O)Cc2cccc(F)c2)s1` are 2% and -0.25.
On the same counts, the results for `CC(C)C[C@H]1CN(C)CCN1C(=O)CCc1ccccc1C(N)=O` are -4% and 0.69.
For `CCc1noc(C)c1CN[C@@H](C)c1cccc(N2CCOC2=O)c1`, in that order: -5% and 0.74.
Consider `CC(C)CC(=O)N1CCc2ccc(OCc3ccc(C(=O)NC4CC4)o3)cc2[C@@H]1c1ccc(F)cc1`, for which the “% Inhibition” value was -18% and the Z score amounted to 1.67.
On the same counts, the results for `CN1CCC(n2nc(-c3ccncc3)nc2-c2n[nH]c3c2CCC3)CC1` are 1% and -0.26.
For `Cc1ccc(-c2ccno2)cc1S(=O)(=O)N1C[C@@H]2CC[C@H]1CN(C)C2`, in that order: -4% and 0.57.
For `Cn1ncc2c(N3CCCCC3)nc(C(=O)N3CCN(c4ccc(Cl)cc4)CC3)nc21`, in that order: -11% and 1.88.
On to `Cc1noc2ncnc(N3CCC[C@H]3c3cnn(C)c3)c12`, for which the “% Inhibition” value is given as -7% and the Z score was found to be 0.7.
Regarding `Cc1ccc(CNC(=O)N(C)CC2CCCCC2O)cn1` (stereo not drawn), the “% Inhibition” value was -3% and the Z score turned out to be 0.27.
On the same counts, the results for `O=C(NCCN1CC[C@H](N2CCCCCC2)C1=O)c1ccco1` are -3% and 0.34.
On the same counts, the results for `O=S(=O)(c1ccc(Cl)s1)N1CC(OCCO)C1` are -5% and 0.72.
For `Cc1occc1-c1cc(NC(=O)N[C@H]2CCCN(S(C)(=O)=O)C2)no1`, in that order: -10% and 2.01.
For the molecule `Cn1nc2n(c1=O)CCC(NC(=O)C1CC=CCC1)CC2` (stereo not drawn), the “% Inhibition” value is on record as -8% and the Z score is recorded as 1.2.
On the same counts, the results for `COCCC[C@]1(C(=O)O)CCCN(c2nccc(N)n2)C1` are -6% and 1.08.
With `Cc1noc(C)c1CN(C)C(=O)NCCOc1ccc2c(c1)OCO2`, the “% Inhibition” value was -1% and the Z score was 0.09.
For `O=C(Cc1ccc(N(Cc2cccc(F)c2)C(=O)c2cccc(F)c2)cc1)NCCN1CCCC1`, the “% Inhibition” value was 3% and the Z score was -0.41.
For `O=C1CC[C@@]2(CCCO2)CCN1Cc1cccc(Oc2ccccc2)c1`, in that order: -7% and 1.02.
For `CCOC(=O)c1cnn(CCOc2ccccc2)c1N`, in that order: -16% and 2.41.
For `CN1CCN(C(=O)NC(C)(C)C)[C@@H](CNC(=O)OC(C)(C)C)C1`, in that order: -9% and 1.22.
Turning to `CCC(C)C(C(=O)O)n1c[n+]([O-])c(-c2ccccc2)c1-c1ccccc1` (stereo not drawn), the “% Inhibition” value worked out at 1% and the Z score is reported as -0.07.
On the same counts, the results for `O=C(c1cccnc1O)N1CC(Oc2ccccc2F)C1` are -17% and 1.81.
On the same counts, the results for `COc1ccc(-c2ocnc2C(=O)Nc2ccccc2CCc2nc3ccccc3[nH]2)cc1OC` are -7% and 0.86.
For `CS(=O)(=O)CCCN1CCC[C@H](c2cc(F)ccc2F)C1`, in that order: -6% and 0.81.
For `CCCN1C(=O)N[C@@H](CC(=O)N2CCC(C(=O)N3CCCC3)CC2)C1=O`, the “% Inhibition” value is recorded as -7% and the Z score is given as 1.19.
Take `CC(=O)N(C)C1CCN(c2cc(C(C)C)nc(N3CCC(N(C)C(C)=O)CC3)n2)CC1`: the “% Inhibition” value is listed as 8% and the Z score was -0.87.
On the same counts, the results for `COCCOCCS(=O)(=O)Nc1c(O)cccc1Cl` are 2% and -0.2.
For `CCS(=O)(=O)C[C@H](C)NC(=O)c1cccnc1`, the “% Inhibition” value is given as -14% and the Z score turned out to be 1.58.
For `CC(C)(C)OC(=O)N1C(=O)CC[C@H]1C(=O)OCc1ccccc1`, in that order: -9% and 1.28.
On to `COc1ccccc1[C@H](CNCc1c[nH]nc1C)N1CCCC1`, for which the “% Inhibition” value is on record as -6% and the Z score is 0.93.
On the same counts, the results for `COc1ccc(CN2C(=O)N[C@@H](CC(=O)Nc3ccc(F)c(F)c3F)C2=O)cc1OC` are -10% and 1.34.
On the same counts, the results for `CC(C)N(Cc1ccn(-c2ccccc2)n1)C1CCCC1` are -6% and 0.91.
On the same counts, the results for `Cc1noc(C)c1NC(=O)N1CC(C)OC(C)C1` (stereo not drawn) are -4% and 0.42.
Consider `O=C(CC(=O)Nc1ccc(F)c(Cl)c1)NCc1cc(C2CC2)[nH]n1`, for which the “% Inhibition” value is -6% and the Z score was found to be 0.73.
For `ON(Cn1nnc2ccccc21)Cn1nnc2ccccc21`, in that order: -5% and 0.67.
On to `O=C(Cn1c2c(c(=O)n3nc(-c4ccccc4)nc13)CCC2)Nc1cc(F)ccc1F`, for which the “% Inhibition” value is 2% and the Z score is given as -0.24.
